Source: paper PMC6556554, “The Molecular Basis for Apolipoprotein E4 as the Major Risk Factor for Late-Onset Alzheimer's Disease” (Journal of Molecular Biology, 2019)

Target: the molecule itself
Test: SEC + SEC-MALS; gel filtration on HiLoad Superdex 26/600 200 pg in 20 mM Hepes, 300 mM NaCl, 10% glycerol pH 8.0; SEC-MALS at 5 mg/mL in 20 mM Hepes, 300 mM NaCl, 1 mM TCEP pH 8.0, RT, Shodex Kw-403 column; oligomer in solution

B1: Apolipoprotein E2 (natural protein)
chain: not shown
notes: Human apolipoprotein E, isoform E2 (cysteine at 112 and at 158); made from the codon-optimized ApoE4 gene by site-directed mutagenesis; Tags were cleaved on column with PreScission (HRV 3C site); residues of the site may be left at the N-terminus; Cloning details are in the supplementary information; also called ApoE2; source: E. coli Rosetta2(DE3), purified (Talon beads, HiTrap heparin, Superdex …)
  stoichiometry N: 4
